Test results taken from the supplement of paper PMC11417369.
± gives the standard deviation of the averaged measurements. The list shows a part of the results.

Test system: PfAP2-I AP2 domain 3 (GST-tagged)
Experiment: gcPBM binding intensity (ln(normalized median fluorescence intensity)); higher = stronger DNA binding
In short: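 The highest Masliner-normalised natural-log median intensity across replicate spots of either probe orientation is reported as binding intensity. GST-tagged P. falciparum DNA-binding domains expressed in E. coli were applied for 1 h to an Agilent 4 × 180k array of primer-extended double-stranded 36-bp intergenic genomic probes plus negative controls, and bound protein was detected with Alexa488 anti-GST antibody and scanned at 488 nm.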

Sequence	gcPBM binding intensity (ln)
AATAAGATATCTACAACACACATTTAATTTTTTTTT [CACACA_site1641]	7.71 ± 0.5
AATCATAAAGAACATATAATATATATATATATATAT [CACACA_negctrl_site316]	9.19 ± 0.67
AATTGTCAGAGAATATGTACTTAAGTATTTATTGTT [XGTACX_site1947]	7.78 ± 0.39
GTCAACAAGAATTAAGTGCATAATTTTTTATTAAAT [GTGCAC_site9492]	10.3 ± 0.18
AAATTTTATGTATAATGTACACATAAATTTTTCTTT [XGTACX_site7266]	7.66 ± 0.39
ATACAGATAGGATGCACACATAATTCAAATACAATA [CACACA_site4531]	8.33 ± 0.37
ATATAATAATAATATTGTACAATAAAAAATATATAT [XGTACX_site7350]	7.84 ± 0.47
ATGTCAAGAACTGAACGTACAAACTTTGTAATATTG [XGTACX_site8754]	7.72 ± 0.45
AGTAATAATCGGCATGCATGTCAGTGGTAGTATATA [TGCATGCA_site312]	7.96 ± 0.6
AAGGAATGCATATAGGTGCTACACATAAAAATAAAA	8.99 ± 0.76
TTAAGTAGTACATACACACACATATACAAAAAGAAA [CACACA_site3972]	8.17 ± 0.028
TACTTTTTTCCTATTATGTTTCTTATTTTTATAAAT [XGTACX_negctrl_site561]	8.02 ± 0.61
TTTTTTTTTGAAAAAAGTACTTAATTTTTAAGAAGA [XGTACX_site3591]	7.58 ± 0.38
TCTAATAATAAATACACACACATATATATTTATATA [CACACA_site5169]	7.63 ± 0.39
TATATATATTAAAAAGTGCATTATTCATATTATATA [GTGCAC_site9400]	11.1 ± 0.73
TTACAATTTAATATATGTACATATTTGTGATTTATC [XGTACX_site2911]	7.94 ± 0.13
TATAATGTTAAATAATGTACATATATTTTTTTTTTT [XGTACX_site4722]	7.53 ± 0.35
AAAATATCTTGTTACTGTACAAATATAAATAAATAC [XGTACX_site3684]	7.84 ± 0.59
TTTATTAATAATTATACACACATATAAAATGAATAA [CACACA_site1359]	7.64 ± 0.39
AATAATAACATACAGACACACACGTAAAAGCACGTG [CACACA_site253]	9.3 ± 0.33
TTTATATATTAATATGCACACACAAGAAGTAATTAT [CACACA_site9045]	9.12 ± 0.071
ATATATACGTATGAATGTATATTTGTTTGAATTTTT [CACACA_negctrl_site524]	7.43 ± 0.5

Sequence	gcPBM binding intensity (ln)
AATGGGTAAACATACACACACACATATATATATATA [CACACA_site1991]	9.44 ± 0.29
AGTAAAAAAAAAAAAAAAAAAAAAAAAAAAAAAAAA [GTGCAC_negctrl_site147]	8.38 ± 1
TATTAATATTTTTGTTGTACTTAAAAATGATGGTAG [XGTACX_site3501]	8 ± 0.028
CATATACACGAACACACACACATATAAATAAATATA [CACACA_site6379]	8.045 ± 0.078
TATTATTTTAATTATTCACACATTATTATAAAAATT [CACACA_site5538]	7.65 ± 0.4
GGAATATTAAAAAAATGTACAAAAAATAATATCCAT [XGTACX_site2596]	7.84 ± 0.64
AACAAAGTCATACATACATACATATATATATATATA [GTGCAC_negctrl_site632]	9.34 ± 0.55
TCAATAATAAAAAACACACACAAAAAAAAATAATTA [CACACA_site2798]	7.46 ± 0.67
ATAATACATACATACATACACACATATATATATATT [CACACA_site3576]	8.1 ± 0.51
TATTGTATTTCATATTGTACTAAAAAAAAAAAAAAG [XGTACX_site6694]	7.86 ± 0.11
AAAAAAAAAAAAAAAACACACATACACATATATTTT [CACACA_site7768]	8.71 ± 0.35
TATATTATTTATAGTAGTACATAAAATATAAATATT [XGTACX_site4417]	7.64 ± 0.26
TAAAAAAAAAAAAAAACACACATATAAATATTTATA [CACACA_site6702]	7.27 ± 0.37
ATAAGCATACATATTACACACATATAATATATATAT [CACACA_site2487]	8.695 ± 0.035
TACATATATATATATGAACACACAAAAAGAATATTT [CACACA_site8421]	7.85 ± 0.68
TTTTATGAGAAACACACACACAAAAAAAAAAAAAAA [CACACA_site4129]	8.03 ± 0.67
TCTTACTAATTTATGGGGACTTATCACCTATTCAGT [CACACA_negctrl_site652]	7.74 ± 0.75
AGTGGATAAATTTATTCACACATTTTTTTTTTTTTT [CACACA_site5914]	9.78 ± 0.42
CATGAATCCTAATAATGTACATAAGAATTCATAATG [XGTACX_site1607]	7.58 ± 0.5
ACATACATATATTTATGTACATATATATTTATGATT [XGTACX_site6485]	7.63 ± 0.28
AATTTATATTTATGTGCATGTAATAACTGTATATAA [TGCATGCA_site349]	8.41 ± 0.45
AAAAAAAGATTATACACACACATATATAAACATACA [CACACA_site4553]	7.78 ± 0.33

Sequence	gcPBM binding intensity (ln)
TTTTGGTGTATAGTATTAATATAAAATAATTATATT [CACACA_negctrl_site47]	7.82 ± 0.55
ATTTTTTTTTCTTGTACACACTATTTTATAATTTTA [CACACA_site6102]	8.41 ± 0.54
TTAGCTTATCATTACTGTACTTTATTCATATATATG [XGTACX_site8008]	7.89 ± 0.54
TAAACATTCTTATATAGTACCCATATTAAAATATAC [XGTACX_site8014]	7.58 ± 0.39
ATGAAAAAAAAAAAAAAAAAAAAAAAAAAAAAAATA [CACACA_negctrl_site1083]	7.53 ± 0.42
ATTTTTTTGTATATATATGACTGGGGATATAATCAA [GTGCAC_negctrl_site274]	7.87 ± 0.64
TATTATTTTTCATATGCATGCAAAAATAAAAAAATA [TGCATGCA_site350]	8.11 ± 0.44
TATAAAAAAAAAAAAAAAAAAAAAAATATATATATA [CACACA_negctrl_site817]	9.27 ± 0.16
AAAAAAAAAAAAAATTGTACTTAAATATATATATAT [XGTACX_site7604]	9.285 ± 0.078
AAATTAAAATAAAATAGTACATATATTTATATTTTT [XGTACX_site1687]	7.59 ± 0.38
TGTGTATAAAAAAAGTGTACACAAAGTAAGACTTTA [XGTACX_site3759]	8.16 ± 0.45
AGCAACTAAAAAGGATACCCCATTAAAAAAAAATTA [XGTACX_negctrl_site489]	7.46 ± 0.5
TACCAAAAAACGGCACGCATATGTATAAGAATATGT [XGTACX_negctrl_site470]	7.96 ± 0.86
AAATATATAAAAGTATGTACATATGAAAAATATATA [XGTACX_site6165]	8 ± 0.52
TTATATAACATAACGATGTTTCAAAACATATTGTAT [CACACA_negctrl_site997]	7.71 ± 0.64
TTATAAAGAATTAGGAGTACAAATGCATATATAATA [XGTACX_site6580]	8.22 ± 0.45
TTTAAAATTTAATTTTGTACATATACCAATTTTATT [XGTACX_site448]	7.63 ± 0.46
ATATAATATATGTTATGTACATAGTTTTTATTGTTC [XGTACX_site7438]	7.74 ± 0.33
AATATATAATCAGATGAATTTTTTTTTTTTTTTTCA [CACACA_negctrl_site534]	7.21 ± 0.53
ATATAAATATGAAAAAGTACAAGCCATCAAGAAATC [XGTACX_site8140]	8.07 ± 0.53
AATTTTTTATTCTTTGCATGTCATCATATATAATAT [TGCATGCA_site549]	8.12 ± 0.69
ATATAATGTTAGGGTAGAGGAAGTAACTAATATAAA [CACACA_negctrl_site1153]	7.75 ± 0.77

Sequence	gcPBM binding intensity (ln)
AATTAGCATAAATGGGTGCTACACAAAAATGCATGT [GTGCAC_site9640]	8.94 ± 0.45
TATAAATATTATAATTGTACATATTATAAAAATTTT [XGTACX_site2719]	7.63 ± 0.33
TCTCTTTTTCGTTCATGTACAAATAAATAAAAATAT [XGTACX_site6558]	8.02 ± 0.26
TTATATATATGACTTTGTACATATACATATTTTTTA [XGTACX_site4669]	7.47 ± 0.61
GTATATTTTATTTTATGTACATATTCATTTTTTATT [XGTACX_site561]	8.3 ± 0.4
TATTATATATATGCACGTACAAAAATAATAAAGGTA [XGTACX_site3506]	9.38 ± 0.13
ATTTTTTTACTGGATCCATATTTGCTTTTTTATTTA [CACACA_negctrl_site1108]	8.04 ± 0.81
GTGGATATATGTATATGTACATATGTATGTATATAT [XGTACX_site2412]	8.11 ± 0.49
TTTTTAATTTACTGTCATAGGTACCTTAACTTATCA [CACACA_negctrl_site1664]	7.7 ± 0.54
TATTAATAATTTTCATGTACATATGTATTTGTAATA [XGTACX_site858]	7.68 ± 0.2
ATATAATAAATGTCATGTACATACAACATTTTAACT [XGTACX_site7517]	7.74 ± 0.58
TGAATAAAGAAACACACACACATATATATATATGTA [CACACA_site17]	7.54 ± 0.44
TACATATACATATTGTGTACATAATAATTATTTATA [XGTACX_site7884]	7.87 ± 0.39
TACTTATGTTCGCACACATGCAAATTAAAAAAAAAA [TGCATGCA_site1023]	9.26 ± 0.54
TTAATTAAGAAACACACACACATATATATATATATT [CACACA_site2290]	7.74 ± 0.57
ATATGTATGTATGTATGTACTTATTTATTTATTAAT [XGTACX_site8018]	7.75 ± 0.35
TACATAAATTAAAACACACACACACTAATAAAAAAA [CACACA_site8712]	8.05 ± 0.54
TAGCTCGTTCGGAGCACACACATATATATATATATA [CACACA_site1948]	9.76 ± 0.4
ATTCAATATATATACACACACACTTTTAATAATTAA [CACACA_site3770]	8.1 ± 0.43
GTTTTATTTTGTTTCTATTTGACACATGTGATTATT [CACACA_negctrl_site1246]	8.11 ± 0.61
CATATATATAATTATTCACACAATAGTTAAAAGTAT [CACACA_site5302]	8.01 ± 0.55
